Columns and labels:
Format in all cases: cell-based
Conditions in all cases: Hepatitis B virus
HBV-3TC-R3 M204I = tested on: HBV-3TC-R3 M204I
Description: (§1) Antiviral analysis. For the antiviral analyses, confluent cultures of 2.2.1.5 cells were maintained on 96-well flat-bottomed tissue culture plates in RPMI1640 medium with 2% fetal bovine serum. Cultures (6 per each test concentration on two replicate plates) were treated with 9 consecutive daily doses of the test compounds. Medium was changed daily with fresh test compounds. HBV nucleic acid and protein levels were measured 24 hours after the last treatment. Extracellular (virion) HBV DNA levels were assessed by quantitative blot hybridization. Intracellular HBV DNA levels were measured by quantitative Southern blot hybridization.
(§2) The uptake of neutral red dye was used to determine the relative level of toxicity 24 hours following the last treatment. The absorbance of internalized dye at […] (A510) was used for the semi-quantitative analysis. Values are presented as a percentage of the average A510 values (±standard deviations) in 9 separate cultures of untreated cells maintained on the 96-well plates seeded at the same time with the identical pool of stock cells used for the antiviral analyses and maintained in an identical manner. A total of 3 cultures were treated with each concentration of the test compound.

HBV-ADV-R1 N236T = tested on: HBV-ADV-R1 N236T
Description: as §1, §2

HBV-3TC-R2 M204V = tested on: HBV-3TC-R2 M204V
Description: as §1, §2

HBV-3TC-R1 L180M = tested on: HBV-3TC-R1 L180M
Description: as §1, §2

SMILES	EC50 (HBV-3TC-R3 M204I) [µM]	EC90 (HBV-3TC-R3 M204I) [µM]	EC50 (HBV-ADV-R1 N236T) [µM]	EC90 (HBV-ADV-R1 N236T) [µM]	EC50 (HBV-3TC-R2 M204V) [µM]	EC90 (HBV-3TC-R2 M204V) [µM]	EC50 (HBV-3TC-R1 L180M) [µM]	EC90 (HBV-3TC-R1 L180M) [µM]
CC(C)(C)C(=O)OCOP(=O)(COCCn1cnc2c(N)ncnc21)OCOC(=O)C(C)(C)C [ADV, adefovir dipivoxil]	2	8	7.5	29	1.8	7.2	2.1	8.2
Nc1ccn([C@@H]2CS[C@H](CO)O2)c(=O)n1 [Compound 3TC, Lamivudine]	> 100	> 100	0.2	0.8	> 100	> 100	5.3	20
CO[C@H]1C(OP(=O)(OC[C@H]2O[C@@H](n3cnc4c(N)ncnc43)CC2O)SCOC(=O)OC(C)C)[C@@H](CO)O[C@H]1n1ccc(=O)[nH]c1=O (stereo partly drawn) [Compound 6k]	3	9.2	2.8	8.7	2.4	8.3	2.1	8.6
